Data reported in PMC4778132 (2016).

T1: GST-CCR10 CT (C-terminal cytoplasmic tail of human CCR10 fused to GST) (human, UniProt P46092 314-362)
T1 chain: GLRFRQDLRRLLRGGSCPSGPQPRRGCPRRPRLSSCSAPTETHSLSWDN

B1: HIS-tagged human S100A10 mutant 85Stop (domain or fragment)
chain: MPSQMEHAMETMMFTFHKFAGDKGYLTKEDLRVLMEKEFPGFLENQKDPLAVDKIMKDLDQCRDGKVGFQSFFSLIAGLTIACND
B2: HIS-tagged human S100A10 mutant C82S (natural protein)
chain: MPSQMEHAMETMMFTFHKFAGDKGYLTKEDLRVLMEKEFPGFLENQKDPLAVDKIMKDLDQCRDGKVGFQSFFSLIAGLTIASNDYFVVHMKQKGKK
B3: HIS-tagged human S100A10 mutant C82Q (natural protein)
chain: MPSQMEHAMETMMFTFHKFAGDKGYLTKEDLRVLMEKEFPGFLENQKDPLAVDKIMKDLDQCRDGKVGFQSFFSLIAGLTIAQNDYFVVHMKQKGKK

Biological target: T1, GST-CCR10 CT (C-terminal cytoplasmic …)
Assay: SPR

Row | Binder | Kd [nM]
1 | B1 | 1350
2 | B2 | 442
3 | B3 | 206
